# Source: PubChem BioAssay AID1347165 (National Center for Advancing Translational Sciences (NCATS), 2019)
# Screen size: about 220,000 compounds; about 5,700 (2.6%) were called active. This list was built around the results that the source calls inconclusive (neither active nor inactive); the mix of calls is not that of the screen. Calls come from the whole dose curve; as a rule, active = well fitted inhibition curve with a large enough effect; inconclusive = small, poorly fitted or top-dose-only effect; inactive = no such curve, though single readings can be large or run the other way. A potency beside an inconclusive call is a rough fit, not a confirmed value.
# Biological target: Lysine-specific demethylase 5B (Homo sapiens) (UniProt Q9UGL1)
# Sequence of UniProt Q9UGL1 (Q9UGL1 whole entry, looked up): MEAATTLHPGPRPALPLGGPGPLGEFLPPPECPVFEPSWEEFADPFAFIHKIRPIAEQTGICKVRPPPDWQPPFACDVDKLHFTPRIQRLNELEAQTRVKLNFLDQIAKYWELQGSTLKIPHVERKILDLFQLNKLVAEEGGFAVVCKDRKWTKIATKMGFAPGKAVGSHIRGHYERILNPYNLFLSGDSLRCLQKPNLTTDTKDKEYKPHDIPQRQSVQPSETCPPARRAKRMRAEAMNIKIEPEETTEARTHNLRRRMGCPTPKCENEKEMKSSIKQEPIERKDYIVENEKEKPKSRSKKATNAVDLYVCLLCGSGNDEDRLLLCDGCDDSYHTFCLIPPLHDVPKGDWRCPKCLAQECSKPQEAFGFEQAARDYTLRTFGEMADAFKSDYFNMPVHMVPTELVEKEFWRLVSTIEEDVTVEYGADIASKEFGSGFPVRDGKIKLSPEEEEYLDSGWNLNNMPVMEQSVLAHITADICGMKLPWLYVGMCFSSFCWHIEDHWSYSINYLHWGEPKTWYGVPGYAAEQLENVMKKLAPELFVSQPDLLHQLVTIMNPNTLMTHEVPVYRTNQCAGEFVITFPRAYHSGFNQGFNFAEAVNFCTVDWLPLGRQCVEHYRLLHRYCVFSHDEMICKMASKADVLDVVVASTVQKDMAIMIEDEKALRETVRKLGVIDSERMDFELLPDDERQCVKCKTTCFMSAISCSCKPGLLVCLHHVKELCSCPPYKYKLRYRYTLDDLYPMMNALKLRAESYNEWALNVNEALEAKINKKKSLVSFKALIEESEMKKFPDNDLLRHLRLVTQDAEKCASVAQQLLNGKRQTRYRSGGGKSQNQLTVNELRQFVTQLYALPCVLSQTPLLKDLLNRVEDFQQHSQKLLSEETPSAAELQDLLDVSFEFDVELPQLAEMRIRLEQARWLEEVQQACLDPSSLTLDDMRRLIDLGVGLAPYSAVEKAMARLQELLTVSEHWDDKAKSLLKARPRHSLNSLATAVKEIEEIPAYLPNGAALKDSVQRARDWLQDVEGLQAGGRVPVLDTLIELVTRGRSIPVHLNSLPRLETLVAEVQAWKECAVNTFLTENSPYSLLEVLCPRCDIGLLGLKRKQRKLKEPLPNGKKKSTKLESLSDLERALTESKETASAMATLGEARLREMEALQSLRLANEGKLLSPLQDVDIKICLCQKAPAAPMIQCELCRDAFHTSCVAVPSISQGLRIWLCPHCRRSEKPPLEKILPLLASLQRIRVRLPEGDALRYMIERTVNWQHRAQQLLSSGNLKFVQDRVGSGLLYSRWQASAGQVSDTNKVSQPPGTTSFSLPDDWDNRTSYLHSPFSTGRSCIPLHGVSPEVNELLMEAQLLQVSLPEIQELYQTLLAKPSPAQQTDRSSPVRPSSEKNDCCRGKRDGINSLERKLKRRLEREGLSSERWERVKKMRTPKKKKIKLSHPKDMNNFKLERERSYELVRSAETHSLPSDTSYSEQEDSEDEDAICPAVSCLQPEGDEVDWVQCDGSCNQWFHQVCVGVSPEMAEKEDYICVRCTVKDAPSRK
# Experiment: Primary screen for KDM5B Histone Demethylases FDH-coupled qHTS; note: nearly all actives have a fitted effect of over 70% in size
# Details: FDH-coupled NADH fluorescence (FDH is formaldehyde dehydrogenase); series mostly up to 57.7 µM
# In short: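 Compound dilutions met 200 nM (final) KDM5BΔAP for 10 min at room temperature before substrate addition. The substrate mix held 12.5 µM H3K4me3 with cofactors 25 µM α-ketoglutarate and 50 µM Fe²⁺. NADH signal gain over 30 min defined activity.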
# Potency is the fitted concentration of half-maximal effect; tags give direction and shape of the fitted curve.
row,SMILES,Potency
1,CC(C)(c1nnnn1-c1ccc(Cl)cc1)N1CCOCC1,inactive
2,Cc1ccc2onc(CC(=O)N3CCN(c4ccccc4)CC3)c2c1,"inconclusive: 15.8 µM [inhibitor, partial curve, poor fit]"
3,CCCN(CC1CCOC1)C(=O)c1ccc(F)c(Cl)c1 (configuration not stated),inactive
4,O=C(CCCc1c[nH]c2ccccc12)NCCC12CC3CC(CC(C3)C1)C2,inactive
5,N#C/C(=C\c1cc(Br)c(O)c(Br)c1)c1nc2ccccc2c(=O)[nH]1,"inconclusive: 35.5 µM [inhibitor, partial curve, poor fit]"
6,CCc1ccc(NC(=O)c2cc3n(n2)CC(c2ccc(Cl)cc2)OC3)cc1 (configuration not stated),"inconclusive: 25.1 µM [inhibitor, partial curve, poor fit]"
7,O=c1cc(-c2ccccn2)oc2c(NCc3ccccc3)nccc12,active: 39.8 µM
8,Cc1noc(C)c1C(C(=O)O)N(C)Cc1nc(-c2ccccn2)no1 (configuration not stated),inactive
9,O=C(N/N=C/c1cc(Br)ccc1O)c1ccncc1,"inconclusive: 12.6 µM [inhibitor, partial curve, poor fit]"
10,O=C1CC(c2ccc3c(c2)OCO3)c2sc(C(=O)O)c(-c3ccc(F)cc3)c2N1 (configuration not stated),inactive
11,CN(C)CCNC(=O)c1cccnc1OC1CCNCC1,"inconclusive: 14.1 µM [inhibitor, partial curve, poor fit]"
12,CCCOc1ccccc1C1C(C(=O)Nc2ccccc2)=C(C)Nc2nnnn21 (configuration not stated),"inconclusive: 5.01 µM [inhibitor, partial curve, poor fit]"
13,CC1CCC(NC(=O)c2cc(C3CC3)nc3ccccc23)CC1 (configuration not stated),inactive
14,COc1ccc(-c2nc3c(c(=O)[nH]2)CCN(S(=O)(=O)C2CC2)C3)cc1,"inconclusive: 39.8 µM [inhibitor, single point]"
15,Oc1c(C(c2ccccc2F)N2CCCC2)sc2nc(-c3ccco3)nn12 (configuration not stated),"inconclusive: 35.5 µM [inhibitor, single point]"
16,CCC1CSC(Nc2ccccc2C)=N1 (configuration not stated),inactive
17,OCC1(Cc2ccc(F)cc2F)CCCN(c2cnc3ccccc3n2)C1 (configuration not stated),active: 28.2 µM
18,COc1cc(OC)cc(C(=O)N2CCCC(n3cc(-c4nc(-c5ccccc5)no4)nn3)C2)c1 (configuration not stated),inactive
19,Cn1c(=O)c2nc(SCCC(=O)O)n(Cc3ccccc3)c2n(C)c1=O,inactive
20,CNC(=O)c1c(NC(=O)c2ccc(S(=O)(=O)N(C)c3ccccc3)cc2)sc2c1CCN(C(C)C)C2,"inconclusive: 22.4 µM [inhibitor, single point]"
21,CCOc1ccccc1-c1nc(-c2nnn3c2COC(c2ccc(OC)cc2)C3)no1 (configuration not stated),active: 28.2 µM
22,CCNC(=O)N(C)[C@H]1C[C@H]2c3[nH]c4cccc(-c5ccc6c(c5)OCO6)c4c3CCN2C[C@H]1[C@H](C)O,"inconclusive: 25.1 µM [inhibitor, partial curve, poor fit]"
23,O=C(CN1CC(=O)NC1=O)NCc1noc(-c2ccc3c(c2)OCO3)n1,"inconclusive: 25.1 µM [inhibitor, partial curve, poor fit]"
24,COCC1CN(C)CC12CCN(Cc1ccc(F)cc1F)CC2 (configuration not stated),"inconclusive: 20 µM [inhibitor, single point]"

row,SMILES,Potency
1,Cn1c(=O)c2c(ncn2CC(=O)N(CCc2cccs2)Cc2cccs2)n(C)c1=O,inactive
2,Cc1ccc(CCNC(=O)CCn2nc(-c3ccc(C)cc3)ccc2=O)cc1,"inconclusive: 25.1 µM [inhibitor, single point]"
3,COC(=O)c1cccc(S(=O)(=O)Oc2ccc3c(C)cc(=O)oc3c2C(C)=O)c1,inactive
4,Oc1ccc(N=Cc2ccccc2OCc2ccccc2)cc1,"inconclusive: 10 µM [inhibitor, partial curve, poor fit]"
5,Cc1ccc(-c2cc3c(=O)n(CCNC(=O)Cc4cccc(F)c4)ccn3n2)cc1C,"inconclusive: 39.8 µM [inhibitor, single point]"
6,O=C1Nc2ccccc2CC12CCN(Cc1ccc(Cl)cc1)CC2,"inconclusive: 112 µM [inhibitor, single point]"
7,COC(=O)c1ccc2nc(C)cc(Nc3cccc(Cl)c3C)c2c1,"inconclusive: 2.82 µM [inhibitor, partial curve, poor fit]"
8,COc1ccc(-c2cc(N3CCCN(C(=O)c4ccc(F)c(Cl)c4)CC3)n[nH]2)cc1,"inconclusive: 14.1 µM [inhibitor, partial curve]"
9,CCn1cc(S(=O)(=O)c2ccc(Cl)cc2)c(=O)c2cc(F)c(N3CCOCC3)cc21,"inconclusive: 2.24 µM [inhibitor, partial curve, poor fit]"
10,CC(C)NC(=O)Cn1cccc1-c1nc(-c2ccc(Cl)cc2)no1,inactive
11,CCOc1ccc(-c2nc3cc(NC(=O)COc4cccc(C)c4)ccc3o2)cc1,"inconclusive: 1.12 µM [inhibitor, full curve, poor fit]"
12,COC[C@@H]1CCCN1Cc1cc2cc3c(cc2[nH]c1=O)OCO3,active: 28.2 µM
13,CCOc1ccccc1CNC(=O)c1oc2ccc3c(c2c1C)C(=O)CC(C)(C)O3,"inconclusive: 3.98 µM [inhibitor, full curve, poor fit]"
14,O=C(NCc1coc(-c2cccs2)n1)C1(c2ccc(Cl)cc2)CC1,inactive
15,Cc1cc(C)c2nc(-c3ccccc3)c(C)c(C(=O)O)c2c1,inactive
16,COc1cccc(CCC(=O)N2CCCC(CN3CCCC3)CC2)c1 (configuration not stated),"inconclusive: 25.1 µM [inhibitor, single point]"
17,CC(CNC(=O)c1ccc2cc[nH]c2c1)c1ccccc1 (configuration not stated),"inconclusive: 28.2 µM [inhibitor, partial curve, poor fit]"
18,COc1ccc2[nH]c(C)c(CCNC(=O)c3cc4ccccc4oc3=O)c2c1,inactive
19,CC(C)c1ccc(-c2cc(C(=O)O)[nH]n2)cc1,inactive
20,Cc1ccc2oc([C@H]3CCN(C(=O)C4CC4)C3)nc2c1,"inconclusive: 44.7 µM [inhibitor, single point]"
21,CCc1noc(-c2cccn3c(CNC(=O)c4ccc(Cl)cc4)nnc23)n1,"inconclusive: 3.16 µM [inhibitor, partial curve, poor fit]"
22,CCn1c(C)cc(C(=O)CSc2nc3ccc(OC)cc3[nH]2)c1C,inactive
23,CCCc1nnc2sc(-c3cc(OC)c(OC)c(OC)c3)nn12,"inconclusive: 35.5 µM [inhibitor, single point]"
24,CCOc1cccc(NC(=O)C2CC(=O)N(C)C(=Nc3ccc(OC)cc3)S2)c1 (configuration not stated),inactive

row,SMILES,Potency
1,Cc1ccc(Cl)cc1Nc1nn2c(=O)c3ccc(C(=O)NC(C)c4ccccc4)cc3nc2s1 (configuration not stated),"inconclusive: 2 µM [inhibitor, partial curve, poor fit]"
2,C=CCN1CC2(CCC1=O)CCN(CC1CCCS(=O)(=O)C1)CC2 (configuration not stated),"inconclusive: 14.1 µM [inhibitor, partial curve, poor fit]"
3,COc1cc(-n2cnnn2)cc(-n2ccnc2-c2cc3n(n2)CCNC3)c1,inactive
4,Cc1cc(=S)nc[nH]1,"inconclusive: 20 µM [inhibitor, partial curve, poor fit]"
5,CN(Cc1ccc(F)cc1)c1ccc2ncc(Nc3ccncc3)n2n1,"inconclusive: 35.5 µM [inhibitor, single point]"
6,Cc1ccc2c(C)c(C(=O)Nc3cccc4cccnc34)oc2c1,inactive
7,c1ccc(Nc2cc3c(cn2)NCCN(Cc2ccsc2)C3)cc1,active: 35.5 µM
8,CN1CCC2(C1)CN(CC1CCOCC1)c1ccc(C(=O)NCc3ccccc3)cc12 (configuration not stated),active: 39.8 µM
9,CC(=O)N1CCC(N2CCC[C@H]2c2nc(-c3ccc(-c4cncnc4)nc3)no2)CC1,"inconclusive: 39.8 µM [inhibitor, partial curve, poor fit]"
10,CC(=C/C(=O)O)/C=C/c1ccco1,"inconclusive: 25.1 µM [inhibitor, partial curve, poor fit]"
11,Cc1cc(C(=O)OCC(=O)NC(C)C)c2ccccc2n1,"inconclusive: 25.1 µM [inhibitor, partial curve, poor fit]"
12,N#Cc1nc(-c2ccccc2F)oc1NCc1ccccc1,"inconclusive: 25.1 µM [inhibitor, partial curve, poor fit]"
13,O=C(Nc1c(NC2CCCC2)c2ccccc2oc1=O)c1cccc(Cl)c1,inactive
14,CCc1cc(C(=O)NNC(=S)NC(=O)c2ccccc2)cs1,"inconclusive: 35.5 µM [inhibitor, single point]"
15,Cc1nc2nc(SCc3nc4ccccc4[nH]3)[nH]c2cc1Br,"inconclusive: 12.6 µM [inhibitor, partial curve, poor fit]"
16,CN1CCC(N2CC[C@H](c3nc4ccccc4s3)C2)CC1,active: 28.2 µM
17,CC(=O)N1CCN(C(=O)c2cc(C3CC3)nc3ccccc23)CC1,inactive
18,CCC1c2ccsc2CCN1C(=O)C1CCN(S(=O)(=O)c2ccc(C(C)=O)cc2)CC1 (configuration not stated),inactive
19,C/C(=N/NC(=O)c1cccs1)c1ccc(Cl)cc1,inactive
20,Cc1ccc(-c2cc(=O)c3cc(Cl)cc(Cl)c3o2)cc1,inactive
21,COc1ccc(NC(=O)c2nn(C3CCS(=O)(=O)C3)c3c2CCCC3)cc1 (configuration not stated),"inconclusive: 39.8 µM [inhibitor, single point]"
22,COc1cccc(NC(=O)NC[C@H]2O[C@@H](CC(=O)N3CCc4ccccc43)[C@H](O)[C@@H]2O)c1,inactive
23,Cc1nc2ccccc2nc1SC(C)C(=O)NCC(C)C (configuration not stated),inactive
24,COc1cccc(NC(=O)C2(C)COCc3cnc(Nc4ccccc4)nc32)c1 (configuration not stated),"inconclusive: 44.7 µM [inhibitor, single point]"
